Data: the RNAGym collection of RNA variant scans (doi:10.7554/elife.90254)
Read counts are not given, so values of variants with three or more changes are uncertain.

B1: LINE1-mini (parent)
chain: GGCAGAGCUCAACACAGCGUGGCAAAGUGGCUGUGGCUAGACUGCC

Variants of: B1
Experiment: self-cleavage, relative activity (ratio to wild type); higher = more cleavage; in vitro, sequencing; the parent is a self-cleaving ribozyme

Variant | self-cleavage
GGCAGAGCUCAACACAGCGUGGCAAAGUGGCUGUGCCUAGUCGGCC | 0.08
GGCAGAGCUCAACACAGCGUGGCAAAGUGGCUGUGCCUAGACUUCG | 0.14
GGCAGAGCUCAACACAGCGUGGCAAAGUGGCUGUGAGUAUUCUGCC | 0.08
GGCAGAGCUCAACACAGCGUGGCAAAGUGGCUGUGCAUAGACUGCG | 0.03
GGCAGAGCUCAACACAGCGUGGCAAAGUGGCUGUGACUACACUGAC | 0.07
GGCAGAGCUCAACACAGCGUGGCAAAGUGGCUGUGAGGAGACUGCC | 0.02
GGCAGAGCUCAACACAGCGUGGCAAAGUGGCUGUGACUAAACUUAC | 0.03
GGCAGAGCUCAACACAGCGUGGCAAAGUGGCUGUGCUUAGAAUGCC | 0.09
GGCAGAGCUCAACACAGCGUGGCAAAGUGGCUGUGGAUAGUUUGUC | 0.02
GGCAGAGCUCAACACAGCGUGGCAAAGUGGCUGUGAAUAGACUGAC | 0.3
GGCAGAGCUCAACACAGCGUGGCAAAGUGGCUGUGUCUAUAAUGCC | 0.05
GGCAGAGCUCAACACAGCGUGGCAAAGUGGCUGUGGAUAGACUGAU | 0.04
GGCAGAGCUCAACACAGCGUGGCAAAGUGGCUGUGACAAAACUGCC | 0.55
GGCAGAGCUCAACACAGCGUGGCAAAGUGGCUGUGUUUAGAGUGCC | 0.02
GGCAGAGCUCAACACAGCGUGGCAAAGUGGCUGUGUUUAGAUUGCC | 0
GGCAGAGCUCAACACAGCGUGGCAAAGUGGCUGUGCCUACAAUGCC | 0.01
GGCAGAGCUCAACACAGCGUGGCAAAGUGGCUGUGACUAGCCUGCA | 0.18
GGCAGAGCUCAACACAGCGUGGCAAAGUGGCUGUUGCGAGGCCGCC | 0
GGCAGAGCUCAACACAGCGUGGCAAAGUGGCUGUGUCUAGACCGGC | 0.04

Variant | self-cleavage
GGCAGAGCUCAACACAGCGUGGCAAAGUGGCUGUGACUAGUCUUCC | 0.02
GGCAGAGCUCAACACAGCGUGGCAAAGUGGCUGUGCCUAGACUUGC | 0.04
GGCAGAGCUCAACACAGCGUGGCAAAGUGGCUGUGGAUACACAGCC | 0.08
GGCAGAGCUCAACACAGCGUGGCAAAGUGGCUGUGGAUAGACUGUG | 0.04
GGCAGAGCUCAACACAGCGUGGCAAAGUGGCUGUGACUAGACGGUC | 0.11
GGCAGAGCUCAACACAGCGUGGCAAAGUGGCUGUGGAUAGACUCGC | 0
GGCAGAGCUCAACACAGCGUGGCAAAGUGGCUGUGCGUUGACUGCC | 0.03
GGCAGAGCUCAACACAGCGUGGCAAAGUGGCUGUGACUUGACUCCC | 0.1
GGCAGAGCUCAACACAGCGUGGCAAAGUGGCUGUGCCUAGCCUUCC | 0.03
GGCAGAGCUCAACACAGCGUGGCAAAGUGGCUGUGUCUAGACAGUC | 0.17
GGCAGAGCUCAACACAGCGUGGCAAAGUGGCUGUGCCUAUUCUGCC | 0.21
GGCAGAGCUCAACACAGCGUGGCAAAGUGGCUGUGUCUAGACUCCA | 0.06
GGCAGAGCUCAACACAGCGUGGCAAAGUGGCUGUGCCCAGACAGCC | 0.03
GGCAGAGCUCAACACAGCGUGGCAAAGUGGCUGUGCCUACACUGCA | 0.02
GGCAGAGCUCAACACAGCGUGGCAAAGUGGCUGUGCCUAGCCGGCC | 0.01
GGCAGAGCUCAACACAGCGUGGCAAAGUGGCUGUGCCGUGACUACC | 0.3
GGCAGAGCUCAACACAGCGUGGCAAAGUGGCUGUGUCUGGGCUGCC | 0.02
GGCAGAGCUCAACACAGCGUGGCAAAGUGGCUGUGUCUGGACUGCG | 0
GGCAGAGCUCAACACAGCGUGGCAAAGUGGCUGUGGAUAUAAUGCC | 0.03

Variant | self-cleavage
GGCAGAGCUCAACACAGCGUGGCAAAGUGGCUGUGACCGGACUGCC | 0.31
GGCAGAGCUCAACACAGCGUGGCAAAGUGGCUGUGACUAUACUGUC | 0.02
GGCAGAGCUCAACACAGCGUGGCAAAGUGGCUGUGUAAAGACUGGC | 0.76
GGCAGAGCUCAACACAGCGUGGCAAAGUGGCUGUGGGUAGAGUCCA | 0.03
GGCAGAGCUCAACACAGCGUGGCAAAGUGGCUGUGACUAGAAUGUC | 0.09
GGCAGAGCUCAACACAGCGUGGCAAAGUGGCUGUGGGUAUACUGAC | 0.11
GGCAGAGCUCAACACAGCGUGGCAAAGUGGCUGUGUCUACACGGCC | 0.02
GGCAGAGCUCAACACAGCGUGGCAAAGUGGCUGUGACUGGACUACC | 0.08
GGCAGAGCUCAACACAGCGUGGCAAAGUGGCUGUGACUAAACUCCC | 0.14
GGCAGAGCUCAACACAGCGUGGCAAAGUGGCUGUGCUUAGGCUGCC | 0.1
GGCAGAGCUCAACACAGCGUGGCAAAGUGGCUGUGACUUUACUGCC | 0.03
GGCAGAGCUCAACACAGCGUGGCAAAGUGGCUGUGGGUAGACUGAU | 0.03
GGCAGAGCUCAACACAGCGUGGCAAAGUGGCUGUGCCAAGACUUCC | 0
GGCAGAGCUCAACACAGCGUGGCAAAGUGGCUGUGUCUAAACAGCC | 0.12
GGCAGAGCUCAACACAGCGUGGCAAAGUGGCUGUGGAUAGACUCCG | 0.23
GGCAGAGCUCAACACAGCGUGGCAAAGUGGCUGUGUCUAGAUAGUC | 0.01
GGCAGAGCUCAACACAGCGUGGCAAAGUGGCUGUGGAUAGAUUACC | 0.04
GGCAGAGCUCAACACAGCGUGGCAAAGUGGCUGUGGGCAGAUUGCC | 0.08
